# Measurements reported in publication PMC4336329 (PLoS ONE, 2015).
# The whole screen tested about 310,000 compounds, of which about 14,000 (4.5%) showed an effect of 50% or more. The effect is printed as a negative number. The list shows a part of the results.
# Molecular target: human ether-à-go-go-related gene (hERG) potassium channel (human, UniProt Q12809)
# Test: primary screen, population patch clamp on CHO cells stably expressing hERG
# 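Also: peak tail current of the secondary pulse compared with the same well before compound.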
# Chain of human ether-à-go-go-related gene (hERG) potassium channel (Q12809 whole entry, looked up): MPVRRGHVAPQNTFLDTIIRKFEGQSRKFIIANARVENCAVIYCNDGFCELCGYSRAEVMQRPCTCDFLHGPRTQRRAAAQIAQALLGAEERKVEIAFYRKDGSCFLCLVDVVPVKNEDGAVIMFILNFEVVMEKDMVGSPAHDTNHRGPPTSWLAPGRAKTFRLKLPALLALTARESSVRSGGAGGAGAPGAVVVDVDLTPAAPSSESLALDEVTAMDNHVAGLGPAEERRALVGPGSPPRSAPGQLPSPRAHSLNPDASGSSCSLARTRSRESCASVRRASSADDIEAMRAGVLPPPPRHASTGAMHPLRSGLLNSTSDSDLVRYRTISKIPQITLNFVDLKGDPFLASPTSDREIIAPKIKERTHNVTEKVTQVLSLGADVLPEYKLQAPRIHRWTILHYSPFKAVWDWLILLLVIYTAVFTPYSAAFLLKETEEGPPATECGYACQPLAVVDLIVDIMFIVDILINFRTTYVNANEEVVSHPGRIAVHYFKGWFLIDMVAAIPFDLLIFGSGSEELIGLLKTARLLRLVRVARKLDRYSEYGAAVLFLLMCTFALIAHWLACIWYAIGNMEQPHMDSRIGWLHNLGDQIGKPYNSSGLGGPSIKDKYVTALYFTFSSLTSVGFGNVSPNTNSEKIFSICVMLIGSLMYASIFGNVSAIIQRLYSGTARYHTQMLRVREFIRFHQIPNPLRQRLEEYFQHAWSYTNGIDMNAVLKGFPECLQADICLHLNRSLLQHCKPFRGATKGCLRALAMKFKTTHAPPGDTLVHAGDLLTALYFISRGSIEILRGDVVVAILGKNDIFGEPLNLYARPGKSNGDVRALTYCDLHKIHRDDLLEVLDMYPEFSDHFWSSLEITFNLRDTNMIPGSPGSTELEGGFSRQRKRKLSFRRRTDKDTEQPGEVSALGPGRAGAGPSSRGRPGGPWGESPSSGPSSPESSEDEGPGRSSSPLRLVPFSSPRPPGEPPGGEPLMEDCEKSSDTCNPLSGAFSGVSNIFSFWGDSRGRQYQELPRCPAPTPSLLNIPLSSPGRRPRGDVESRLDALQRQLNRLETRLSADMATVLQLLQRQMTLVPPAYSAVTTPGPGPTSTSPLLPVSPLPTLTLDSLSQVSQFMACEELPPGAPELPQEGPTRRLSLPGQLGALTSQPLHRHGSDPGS
row,SMILES,"hERG current change (%, negative = inhibition) at 10uM [%]"
1,CCOc1ccccc1CN1CCN(Cc2cccc3c2OCO3)CC1CCO (stereo not shown),-62.6
2,O=C(Nc1ccc(OCC(=O)N2CCOCC2)cc1)c1cccc(Cl)c1,-3.45
3,Cc1ccnc(N2C(=O)CSC2c2ccc(Cl)cc2)c1 (stereo not shown),-12.3
4,COc1ccc(CCNC(=O)CSc2nc3[nH]ncc3c(=O)n2-c2ccc(Cl)cc2Cl)cc1OC,16.2
5,Cc1cc(C)c(C)c(/C=C(/C#N)C(N)=S)c1C,-4.15
6,Cc1ccc(S(=O)(=O)Oc2ccccc2/C=C2\SC(=O)NC2=O)cc1,15.8
7,COc1ccc(C2C(C(=O)N3CCN(c4ccc(OC)cc4)CC3)c3ccccc3C(=O)N2C)cc1 (stereo not shown),-23.3
8,CCN(CCCNC(=O)C1CCCN(S(=O)(=O)CC)C1)c1cccc(C)c1 (stereo not shown),-11.4
9,CN(C)/C=C1\N=C(c2cccs2)OC1=O,5.45
10,CCOC(=O)c1c(N)sc(C(=O)OCCOC)c1C,25.1
11,CCCCN(C)CCCNC(=O)C1CC(=O)N(Cc2ccc(OC)cc2)C1 (stereo not shown),-1.67
12,CC(C)(C)c1cc(=O)n2c(C#N)c(C#N)nc2[nH]1,10.8
13,CCOc1ccc(NS(=O)(=O)c2ccc3[nH]c(=O)cc(C(=O)O)c3c2)cc1,-2.51
14,CCOC(=O)c1ccc(NC(=O)Cn2nc(C)c3ccccc3c2=O)cc1,15.3
15,COc1cc(SC)ccc1C(=O)N1CCN(Cc2ccccc2)CC1,-62.7
16,O=C(NCc1ccccn1)c1n[nH]c2ccccc12,17.9
17,O=C(NCc1ccccc1)C12CN(Cc3ccccc3)CC1C(c1ccc([N+](=O)[O-])cc1)=NO2 (stereo not shown),-67.1
18,COc1cccc(NC(=O)CN2C(=O)CSc3ccc(S(=O)(=O)N4CCC(C)CC4)cc32)c1,17
19,O=C(CS(=O)(=O)c1cn(CC(=O)N2CCCC2)c2ccccc12)Nc1ccccc1,3.65
20,O=C(Nc1nc(-c2ccccc2)cs1)c1ccccc1NS(=O)(=O)c1ccc(F)cc1,10
21,CSc1cccc(NS(=O)(=O)c2ccc(C(C)=O)cc2)c1,-27.2
22,COc1cc(Br)cc(CN2CCN(C)CC2)c1O,-19.9

row,SMILES,"hERG current change (%, negative = inhibition) at 10uM [%]"
1,COc1cc(NC(=O)CCC(=O)OCCCC(F)(F)C(F)(F)F)nc(OC)n1,4.37
2,CCN(C(=O)CN1C(=S)NC(C)(C)CC1C)c1ccc(C)c(C)c1 (stereo not shown),18
3,COC(=O)c1ccc(Cn2cnc3ccccc3c2=O)cc1,-38.6
4,COc1ccc(CC(=O)Nc2nnc(C(C)(C)C)s2)cc1OC,2.11
5,Cc1nn(CC(=O)NCc2cccc(F)c2)c(=O)c2cccn12,8.99
6,O=C(Nc1nc(-c2ccccn2)cs1)C1CC(=O)N(c2ccc3c(c2)OCCO3)C1 (stereo not shown),-8.37
7,COc1cccc(CCNCc2cccc(C(F)(F)F)c2)c1.O=C(O)C(=O)O,-3.46
8,Cc1c(NC(=O)CSc2ncccn2)c(=O)n(-c2ccccc2)n1C,27.8
9,COc1cccc(NC(=O)N2CCCCCC2)c1,16
10,CN(C)S(=O)(=O)c1ccc(NS(=O)(=O)/C=C/c2ccccc2)cc1,-9.17
11,CCOc1cccc(=O)c2c(C)n(C)c(C)c12,-4.1
12,COc1ccc(COc2ccc(C3C(S(=O)(=O)c4ccccc4)CON3C)cc2OC)cc1 (stereo not shown),-2.6
13,CCOCC(=O)Nc1cc(C(=O)OC)ccc1C(=O)OC,-2.43
14,CCCCC(=O)Nc1ccc(N2CCN(C(=O)c3ccco3)CC2)cc1,-18.1
15,O=C(O)CSc1nnc(Cn2nnc3ccccc32)n1CCc1ccccc1,16.9
16,O=C/C(=C\Nc1ccc(Cl)cn1)c1nc2cc(Cl)ccc2o1,16
17,CCn1c(SCc2ccc(C)cc2)nnc1-c1cnccn1,-18.8
18,CC1CCCC(C)N1C(=O)CN1C(=O)C(C)(C)Oc2ccc(C(=O)NC3CCCC3)cc21 (stereo not shown),-36.1
19,COCCN(C(=O)COC(=O)CCC(=O)c1cccs1)c1c(N)n(Cc2ccccc2)c(=O)[nH]c1=O,15.4
20,OC(CNCc1ccccc1F)(c1ccc(F)cc1)c1ccc(F)cc1,-26.7
21,CCOC(=O)c1c(C)n(CC)c2ccc(OC(=O)c3ccc([N+](=O)[O-])cc3)cc12,6.3
